The results in this text go back to the supplement of paper PMC11417369.

± gives the standard deviation of the averaged measurements. Some of the results follow.

The test deals with PfAP2-LT AP2 domain (GST-tagged). Briefly: gcPBM binding intensity (ln(normalized median fluorescence intensity)); higher = stronger DNA binding. An outline of the steps:
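An Agilent 4 × 180k array of primer-extended double-stranded 36-bp intergenic genomic probes, with negative controls, was incubated for 1 h with GST-tagged P. falciparum DNA-binding domains expressed in E. coli. Alexa488 anti-GST antibody detected bound protein, scanned at 488 nm. Binding intensity is the highest Masliner-normalised natural-log median intensity across replicate spots of either probe orientation.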
For “GATATTATTGCATATTTACACACGTACTAATTTAAA [CACACA_site8231]”, the “gcPBM binding intensity (ln)” value was 9.14 ± 0.4. To “TTTAATAAAATTCTAGTGCAAAAAGGAAAAAACAAA [GTGCAC_site9642]” belongs 8.57 ± 0.42; to AATATATAGGAAAAAGTGCAATAAATGAACAAAATA, 9.02 ± 0.46. To “AAAAGAAATGACAAATTGGATAGATAATAGGGGGTA [GTGCAC_negctrl_site262]” belongs 9.12 ± 0.092; to “AATTTTGATATATATTGTACGCATTTTTAAATGCCA [XGTACX_site7694]”, 8.79 ± 0.4; to “TTATTTACTTATTGCACACATATAAAATATATTTAT [CACACA_site3101]”, 8.98 ± 0.39.

As for “TTCTTAATTTAAAATTGTACTTAAGTAATACTTATG [XGTACX_site3928]”, the “gcPBM binding intensity (ln)” value is 8.49 ± 0.57.

Take “GAAGTTTTTTAAAGATGTACTTTTTAAAAATAATGT [XGTACX_site1975]”: the “gcPBM binding intensity (ln)” value was 8.31 ± 0.45. For “AAAAAAAAAAAAAATACACACATATATAAATAAATA [CACACA_site6459]”, the “gcPBM binding intensity (ln)” value was determined as 8.96 ± 0.47. As to “GGAATAGTGATATATACACACAAATACATATTTATA [CACACA_site6183]”, the “gcPBM binding intensity (ln)” value came out at 9.18 ± 0.35.

As for “AATTAATAAGAAAGGTGTACAGAAAAAAAAAAATAT [XGTACX_site2106]”, the “gcPBM binding intensity (ln)” value stood at 8.91 ± 0.57. To “GAAAAAAGAAATTTATGTACATACATATATATATAT [XGTACX_site7888]” belongs 9.07 ± 0.33. The same measure for “ATATGTAAAATATGGGGTACGAAGGTAGGTAGGTAA [XGTACX_site1392]”: 9.37 ± 0.52; for “ATAAAGCCATACAATACACACATTTTACATGTCGGT [CACACA_site3265]”: 9.23 ± 0.46; for “ATTCTATATGTTACATAAACCTATATTTTTTTTTTT [CACACA_negctrl_site860]”: 8.63 ± 0.56.

For “TAAGCCACCATATTTACACACACATCAAAATGTATT [CACACA_site1815]”, the “gcPBM binding intensity (ln)” value stood at 9.36 ± 0.36.

On to “TAAATAATATAATTATGTACGTATTTCTTTATTTTA [XGTACX_site8410]”, for which the “gcPBM binding intensity (ln)” value was determined as 8.61 ± 0.42. To “GCTGAAAATAAATGAAGTACACAAGTAATATATATA [XGTACX_site6205]” belongs 9.05 ± 0.5; to “TATATATATATATATACATGCATCATTGTTCACCTT [TGCATGCA_site177]”, 10.2 ± 0.35. To “TAATATTGACTATATACACACATATAAATATAAATA [CACACA_site6414]” belongs 8.91 ± 0.33; to “AAAAAAAAAAAAAAAAGTACATATGCTCAAGAGATG [XGTACX_site3783]”, 8.68 ± 0.45. To “TTTTTTTTTTAATTAACACACATAAATATAAATATA [CACACA_site7527]” belongs 8.41 ± 0.42; to “CATTCAAAGAAAAACAGTACGTGTAGCAAAAGGCCT [XGTACX_site266]”, 9.05 ± 0.38; to “AATGGGATCATGGTATGTACTTACACAAATGAATTA [XGTACX_site5389]”, 8.76 ± 0.55.

For “TTGTATTTACTATACACACACATACATACATACATA [CACACA_site4603]”, the “gcPBM binding intensity (ln)” value stood at 9.45 ± 0.31.
